Experimental data reported in PubChem BioAssay AID1508642 (National Center for Advancing Translational Sciences (NCATS), 2021).
Hit rate of the full screen: of about 43,000 compounds, about 200 (0.47%) were called active. Not shown: some 12% with an inconclusive outcome. The call rests on the fitted dose curve; in most records, active means well fitted cell-killing curve with a large enough effect; inconclusive means small, poorly fitted or top-dose-only effect, or effect the other way; inactive means flat fitted curve, though single readings scatter. This is one part of the list.

Test: Cell viability qHTS assay in S16 Pmp22-F2sN cells; further: nearly all actives have a fitted effect of over 65% in size
Details: S16 Pmp22-F2sN Schwann cells viability, CellTiter-Glo, 24 h; series mostly up to 57.5 µM; activity change, negative = cytotoxicity: at the top concentration
Method in brief: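 Viability was measured by CellTiter-Glo luminescence (15 min, room temperature). This followed 24 h at 37 °C of compound exposure (23 nL pin transfer) in S16 Pmp22-F2sN Schwann cells, 500-1,000 per well.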
On the % scale 0 is the no-effect control and ±100 the full control effect.

Row | SMILES | activity change, negative = cytotoxicity
1 | COc1ccc(S(=O)(=O)N2CCC(Oc3cccc(C(F)(F)F)c3)CC2)cc1OC | inactive: 0.587%
2 | COc1ccc(N2CC(C(=O)NCCS(=O)(=O)N3CCN(c4ccccc4)CC3)CC2=O)cc1 (stereo unspecified) | inactive: -12.8%
3 | CCOC(=O)c1cc(-c2ccccc2)n(CCCC(=O)Nc2ccc(C)c(Cl)c2)c1C | inactive: -14%
4 | Cc1ccc2occ(-c3cc(-c4ccccc4)nc4c3COc3ccccc3-4)c(=O)c2c1 | inactive: 2.68%
5 | Cc1ccc(C)c(NC(=O)CSc2nc3nccnc3c(=O)n2CCc2c[nH]c3ccccc23)c1 | inactive: -1.01%
6 | Cc1ccc(-n2c(=O)c3c(C)c(C(=O)N(C)C)sc3n(CC(=O)N(C)c3ccccc3)c2=O)cc1C | inactive: 1.5%
7 | CCc1cccc(NC(=O)c2cnc(N3CCOCC3)c3ccccc23)c1 | inactive: -25%
8 | CN(CC(=O)Nc1ccc(OC(F)(F)F)cc1)S(=O)(=O)c1ccc2c(c1)CCC(=O)N2 | inactive: -19.2%
9 | Fc1ccc(N2CCN(Cc3nnc(-c4ccccc4Cl)o3)CC2)cc1 | inactive: -3.13%
10 | CCc1cccc(C)c1Nc1c(-c2ccc(F)cc2)nc2sccn12 | inactive: -0.553%
11 | N#Cc1nc(-c2ccc(COc3ccc(Cl)cc3)o2)oc1N1CCCCC1 | inactive: 1.64%
12 | CCOC(=O)c1scc(-c2ccccc2)c1S(=O)(=O)Nc1ccccc1OC | inactive: 1.97%
13 | COc1ccccc1N1CCN(c2nc3c(S(=O)(=O)c4ccccc4)nnn3c3ccc(Cl)cc23)CC1 | inactive: 0.393%
14 | COc1ccc(CNS(=O)(=O)c2ccc(C(=O)N(C)C)s2)cc1 | inactive: -24.5%
15 | Cc1ccc(CNc2nc(-c3ccco3)nn2C(=O)c2ccccc2[N+](=O)[O-])cc1 | inactive: -0.409%
16 | CCOc1ccc(NC(=O)CSc2ncc(S(=O)(=O)c3ccc(F)c(C)c3)c(=O)[nH]2)cc1 | inactive: -4.44%
17 | Cc1ccc2c(=O)c(C(=O)c3ccccc3)cn(CC(=O)NCc3ccccc3)c2n1 | inactive: -19.8%
18 | COc1ccc(NC(=O)Cn2c(=O)n(CCCC(=O)NCc3ccccc3Cl)c(=O)c3ccccc32)c(OC)c1 | inactive: 11.9%
19 | CCc1ccc(C(c2ccccc2)c2c(C)[nH]c3ccccc23)s1 (stereo unspecified) | inactive: 15.3%
20 | Cc1cc(C)c(NC(=O)CSc2nc3ccccc3c3nc(-c4ccccc4)nn23)c(C)c1 | inactive: -1.5%
21 | Cc1cccc(CNC(=O)c2ccc3c(c2)N(C)CCS3)c1 | inactive: -15.8%
22 | COc1ccc(CNCc2c(C(=O)O)c(C)n(Cc3ccccc3C)c2C)cc1OC | inactive: 1.17%
23 | Cc1ccc(C)c(N2CCN(S(=O)(=O)c3ccc4[nH]c5c(c4c3)CCCC5)CC2)c1 | inactive: -28.4%
24 | COc1ccc(N2CCN(c3ncccc3-c3nc(-c4ccccc4C)no3)CC2)cc1 | inactive: 16.6%

Row | SMILES | activity change, negative = cytotoxicity
25 | Cc1ccccc1CNC(=O)Cn1nc(C)c2nn(-c3ccc(Cl)cc3)c(C)c2c1=O | inactive: 7.38%
26 | CCOC(=O)c1sc2ccccc2c1S(=O)(=O)Nc1cc(OC)ccc1OC | inactive: 1.9%
27 | CCC(C(=O)NC1CCCCC1)n1c(SCc2ccccc2F)nc2ccncc21 (stereo unspecified) | inactive: -17.1%
28 | COCCNC(=O)CN1C(=O)COc2ccc(S(=O)(=O)N3CCCCCC3)cc21 | inactive: 12%
29 | CCOC(=O)CSc1nc2sc3c(c2c(=O)n1Cc1ccccc1)CC(C(C)C)OC3 (stereo unspecified) | inactive: 16%
30 | CCC(C)NC(=O)CCCn1c(=O)c2cccn2c2ccccc21 (stereo unspecified) | inactive: 1.06%
31 | CCN(Cc1ccccc1)c1nc2c(S(=O)(=O)c3ccccc3)nnn2c2ccc(Cl)cc12 | inactive: 8.46%
32 | CCc1ccc(NC(=O)CSc2ccc(-c3sc(-c4ccccc4)nc3C)nn2)cc1 | inactive: 15.6%
33 | Cc1ccccc1C(=O)Nc1cccc(NC(=O)c2ccc(C(C)(C)C)cc2)c1 | inactive: -21.6%
34 | Cc1ccccc1CNC(=O)CN1C(=O)CCCc2ccccc21 | inactive: -1.1%
35 | Cc1ccc(C2CC(=O)N(Cc3ccc(F)cc3)c3c2c(C)nn3-c2nc(C)cc(C)n2)cc1 (stereo unspecified) | inactive: -12.7%
36 | COc1ccc(CCNC(=O)CCCn2c(=O)c3ccccc3n(CC(=O)Nc3ccccc3C)c2=O)cc1OC | inactive: 15.9%
37 | COc1ccc(Cn2c(SCC(=O)N3CCN(c4ccc(F)cc4)CC3)nc3ccccc32)cc1 | inactive: 9.36%
38 | O=C(CN1CCN(Cc2ccc(F)cc2)C1=O)NCc1ccc(F)cc1 | inactive: -5.27%
39 | COCCNC(=O)Cn1c(-c2cccs2)cc2cc(Cl)ccc21 | inactive: -16.5%
40 | CCc1ccccc1NC(=O)CN(c1ccccc1OC)S(=O)(=O)c1ccc(C)cc1 | inactive: 10.7%
41 | Cc1ccsc1CN(C(=O)COc1ccccc1Cl)C1CCS(=O)(=O)C1 (stereo unspecified) | inactive: 1.15%
42 | Cc1sc(C2C(C#N)=C(N)N(c3ccc(Cl)cc3)C3=C2C(=O)CCC3)cc1CN1CCOCC1 (stereo unspecified) | inactive: -14.6%
43 | O=C(COc1ccccc1)N(Cc1cccnc1)c1nc2c(F)cc(F)cc2s1 | inactive: 1.1%
44 | CC1CCN(S(=O)(=O)c2ccc3c(c2)N(CC(=O)NCCCOC(C)C)C(=O)CO3)CC1 | inactive: 2.18%
45 | COc1cc(C(=O)NCCc2sc(-c3ccc(C)cc3)nc2C)cc(OC)c1OC | inactive: 2.61%
46 | CC1CCN(C(=O)Cn2cc(SCC(=O)NCc3ccc(F)cc3)c3ccccc32)CC1 | inactive: -26.2%
47 | Cc1nnc(N2C(=O)c3oc4ccccc4c(=O)c3C2c2cccc(OCCC(C)C)c2)s1 (stereo unspecified) | inactive: 1.75%
48 | O=[N+]([O-])c1cc(-c2nc(-c3ccccc3)no2)ccc1NCc1ccco1 | inactive: 17.6%

Row | SMILES | activity change, negative = cytotoxicity
49 | Cc1ccc(C(=O)c2oc3ccccc3c2NC(=O)COc2ccccc2C)cc1 | inactive: -0.795%
50 | Cc1ccc(-c2noc(-c3ccc(N4CCOCC4)c([N+](=O)[O-])c3)n2)cc1 | inactive: 12.4%
51 | Cn1c(=O)c2cc(C(=O)NCCCN3CCN(c4ccc(F)cc4)CC3)sc2c2ccccc21 | inactive: 1.9%
52 | COCCCNC(=O)c1c(NC(=O)Cc2coc3cc(C)ccc23)sc2c1CCCC2 | inactive: -0.994%
53 | COc1ccc(C(=O)/C=C/c2cn(CC(O)CN3CCCCCC3)c3ccccc23)cc1OC (stereo unspecified) | inactive: -19.8%
54 | COc1ccc(NS(=O)(=O)c2cnc(N)nc2)cc1Cl | inactive: -0.892%
55 | COc1ccc(-c2nc3ccccc3o2)cc1NC(=O)COc1cc(C)cc(C)c1 | inactive: 5.58%
56 | Cc1oc2c(c1C(=O)Nc1ccc(OC(F)(F)F)cc1)C1=NCCN1C=N2 | inactive: -0.555%
57 | O=C(COc1ccc2oc3c(c2c1)CCCC3)Nc1cccc(Br)c1 | inactive: -0.566%
58 | Cc1cc(=O)[nH]c2nnc(SCC(N)=O)n12 | inactive: -1.92%
59 | CC(=O)c1ccc(Oc2ncnc3c2oc2ccccc23)cc1 | inactive: -0.238%
60 | COc1ccc(NC(=O)CCS(=O)(=O)c2cc3c4c(c2)CCN4C(=O)CC3)c(OC)c1 | inactive: 3.4%
61 | Cn1cc(S(=O)(=O)N2CCCCCC2)cc1C(=O)Nc1ccc(Cl)c(C(F)(F)F)c1 | inactive: 2.92%
62 | COc1ccc(NS(=O)(=O)c2cc3c(cc2C)N(C(C)=O)CCO3)cc1 | inactive: -2.31%
63 | CC1=Nc2cc(C(=O)N3CCC(C)CC3)ccc2Sc2ccc(Cl)cc21 | inactive: 0.599%
64 | Cc1cc2c(cc1NS(=O)(=O)c1cccc(C#N)c1)n(C)c(=O)c(=O)n2C | inactive: -4.32%
65 | CCc1cccc(C)c1NC(=O)Cn1nnc(-c2nc(-c3ccccc3F)no2)c1N | inactive: 7.11%
66 | CCc1ccc(NC(=O)C2CCCN2S(=O)(=O)c2ccc3c(c2)CCCC(=O)N3)cc1 (stereo unspecified) | inactive: -23.9%
67 | COc1ccccc1NC(=O)c1cnc(SCC(=O)N2CCOCC2)n(C)c1=O | inactive: 18.5%
68 | COc1ccc2c(c1)c1c(c(=O)n(Cc3ccccc3)c(=O)n1Cc1cccc(Cl)c1)n2C | inactive: -3.69%
69 | Cc1cc(C)c2oc(-c3ccc(Cl)c(NC(=O)c4cccs4)c3)nc2c1 | inactive: 9.69%
70 | CCn1cc(C(=O)NCCCOC)c(=O)c2cc(S(=O)(=O)N3CCc4ccccc4C3)ccc21 | inactive: -8.5%
71 | COc1ccc(-c2n[nH]c3c2cnc2ccc(F)cc23)cc1 | inactive: 4.97%
72 | CCCSc1nc(-c2ccccc2)[nH]c1S(=O)(=O)c1ccc(C)cc1 | inactive: -17.8%

Row | SMILES | activity change, negative = cytotoxicity
73 | COc1ccc(-c2cc3ccc(O)c(CN4CCCC4)c3oc2=O)cc1 | inactive: 4.96%
74 | Cc1ccc(-c2c(C(=O)NCCc3ccccc3)oc(=O)c3ccccc23)cc1 | inactive: -3.72%
75 | Cc1cc(C)cc(NC(=O)C2CCN(S(=O)(=O)c3cn(C)cn3)CC2)c1 | inactive: -0.313%
76 | O=c1oc2ccc3ccccc3c2cc1-c1nnc(Nc2ccccc2F)s1 | inactive: 3.01%
77 | O=C(NCc1ccccc1)c1cccn1-c1nnc(N2CCCC2)s1 | inactive: 4.31%
78 | CC(=O)N1c2ccccc2C(C)(c2ccc(C)cc2)CC1(C)C (stereo unspecified) | inactive: 3.06%
79 | CN1C(=O)c2ccccc2Sc2ccc(NC(=O)N3CCN(c4ccccc4)CC3)cc21 | inactive: -22.4%
80 | COc1ccc(-n2nnnc2C2CCN(S(=O)(=O)c3ccc(C)cc3)CC2)cc1 | inactive: -2.36%
81 | COc1cc2c(cc1OC)C(COc1ccc3c(C)cc(=O)oc3c1)N(C(=O)c1ccccc1C)CC2 (stereo unspecified) | inactive: 0.993%
82 | COCCn1c(=O)[nH]c2cc(C(=O)N3CCN(c4ccccc4)CC3)ccc2c1=O | inactive: 2.56%
83 | NC(=O)CSc1ncc2c(n1)-c1ccccc1N(Cc1ccc(F)cc1)S2(=O)=O | inactive: 10.7%
84 | CCOc1ccc(C(=O)Nc2ccc3nc(SCC(=O)N4CCc5ccccc54)sc3c2)cc1 | inactive: 11.7%
85 | CC1=C(c2ccc(C)cc2)S(=O)(=O)N(Cc2ccc(C(=O)Nc3ccc(C)c(F)c3)cc2)C1=O | inactive: -2.28%
86 | Cc1ccc(-c2ccc(CCC(=O)O)n2-c2ccc(C(N)=O)cc2)cc1 | inactive: 0.286%
87 | CC(=O)N1CCc2cc(S(=O)(=O)NC(Cc3ccccc3)C(=O)Nc3cc(C)ccc3C)ccc21 (stereo unspecified) | inactive: -0.788%
88 | CCOc1ccc(CNC(=O)c2nn(-c3ccc(OC)cc3)c(=O)c3c2c2ccccc2n3C)cc1 | inactive: 3.98%
89 | O=C(NCC(c1cccs1)S(=O)(=O)c1cccs1)c1cccc(F)c1 (stereo unspecified) | inactive: 18.4%
90 | COc1ccc(-c2nc3ccccc3n3c(-c4ccccc4)c4c(=O)n(C)c(=O)n(C)c4c23)cc1OC | inactive: 2.2%
91 | O=c1oc2c3c(ccc2c2ccccc12)OCN(Cc1ccc(Cl)cc1)C3 | inactive: 1.56%
92 | c1cnc(N2CCN(c3ncc4c(n3)CCNC4)CC2)nc1 | inactive: 9.26%
93 | COc1ccc(OC)c(-n2nnc(-c3nc(-c4cc(OC)c(OC)c(OC)c4)no3)c2C)c1 | inactive: 2.05%
94 | Cc1ccc(Cc2cn3cc(-c4ccc(F)cc4)nc3s2)cc1 | inactive: 11%
95 | COc1ccc(-c2c(C)c3ccc(O)c(CN4CCCC4)c3oc2=O)cc1OC | inactive: -0.898%
96 | Cc1cc(C)n(-c2nc(C)c(C)c(=O)n2CC(=O)Nc2ccc(OC(F)(F)F)cc2)n1 | inactive: -11.6%
